According to publication PMC11509758, “New Fusarochromanone Derivatives from the Marine Fungus Fusarium equiseti UBOCC-A-117302” (Marine Drugs, 2024):
In brackets after ≈: the same amount, converted by molar mass. Where two headings read alike, the source gives them in different places.

Assays:
U-2 OS cells = test: Cell viability, MTS reduction assay, U2OS; details: read-out: EC50 (µM) U2OS, 48 h incubation, doses up to 50 µM
hTERT RPE-1 cells = details: read-out: EC50 (µM) RPE-1; 48 h incubation, doses up to 50 µM, MTS
human EphB1 = target: T1, human EphB1 (Homo sapiens, UniProt P54762); test: ADP-Glo kinase inhibition assay, EphB1; type: biochemical
T1 construct: host or cells: Sf9 insect cells (baculovirus)
T1 sequence (P54762 18-984): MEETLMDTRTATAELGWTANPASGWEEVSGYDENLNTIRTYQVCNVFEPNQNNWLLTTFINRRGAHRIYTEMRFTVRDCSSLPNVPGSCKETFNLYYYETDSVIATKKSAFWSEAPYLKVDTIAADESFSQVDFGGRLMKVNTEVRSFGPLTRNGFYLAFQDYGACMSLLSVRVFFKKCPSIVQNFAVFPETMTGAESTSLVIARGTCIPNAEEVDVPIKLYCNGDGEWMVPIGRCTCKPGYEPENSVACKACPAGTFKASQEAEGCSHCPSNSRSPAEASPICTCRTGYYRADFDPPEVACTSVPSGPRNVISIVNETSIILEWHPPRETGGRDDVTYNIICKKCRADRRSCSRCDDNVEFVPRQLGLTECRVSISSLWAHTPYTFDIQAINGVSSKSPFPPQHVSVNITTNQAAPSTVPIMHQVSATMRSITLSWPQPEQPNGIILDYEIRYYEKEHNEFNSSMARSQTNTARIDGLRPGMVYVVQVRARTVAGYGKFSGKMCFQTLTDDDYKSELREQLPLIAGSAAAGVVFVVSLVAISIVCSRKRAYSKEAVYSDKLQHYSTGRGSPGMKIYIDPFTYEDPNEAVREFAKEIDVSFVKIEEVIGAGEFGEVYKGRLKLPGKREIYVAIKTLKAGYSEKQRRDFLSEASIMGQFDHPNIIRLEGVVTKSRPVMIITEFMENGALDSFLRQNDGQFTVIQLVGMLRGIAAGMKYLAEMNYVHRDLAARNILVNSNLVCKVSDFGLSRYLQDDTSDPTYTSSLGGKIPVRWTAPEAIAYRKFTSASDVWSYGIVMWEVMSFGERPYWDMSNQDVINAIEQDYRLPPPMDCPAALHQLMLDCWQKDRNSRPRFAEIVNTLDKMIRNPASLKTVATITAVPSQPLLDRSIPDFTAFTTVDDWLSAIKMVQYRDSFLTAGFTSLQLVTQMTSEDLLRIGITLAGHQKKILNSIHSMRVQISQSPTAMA
Method: (§1) The inhibitions of the kinase enzymatic activities were measured in 384-well plates using the ADP-GloTM assay kit (Promega, Madison, WI, USA) according to the recommendations of the manufacturer. This luminescent ADP detection assay is described in Zegzouti et al.. The protocols used to measure the enzymatic activity of kinases analyzed in this study are described in […] et al. except for human EGFR and EphB1 (both are recombinant, expressed by baculovirus in Sf9 insect cells). […] Kinase buffer “A”: 10 mM MgCl2, 1 mM EGTA, 1 mM DTT, 25 mM Tris-HCl pH 7.5, 50 μg.mL^-1 heparin. Kinase reactions were carried out with either protein or peptide as substrate in the presence of 10 μM ATP. Peptide substrates were obtained from Proteogenix (Schiltigheim, France). The transmitted signal was measured using the Envision (PerkinElmer, Waltham, MA, USA) microplate luminometer and expressed in Relative Light Units (RLUs). To determine the half-maximal inhibitory concentration (IC50), the assays were performed in duplicate with increasing doses of the tested compounds. Kinase activities are expressed in % of maximal activity, i.e., measured without the tested compound but with a similar dose of DMSO. To validate each kinase assay, the following model inhibitors were used under the same conditions as the tested compounds: Barasertib (AZD1152-HQPA, #S1147, Selleckchem) for Aurora kinase B (AURKB); […] […]

HCT-116 cells = test: cells; details: Homo sapiens, HCT-116, 48 h, read-out: EC50 (µM) HCT-116
JAK3 = target: T2, JAK3 (Homo sapiens, UniProt P52333); test: ADP-Glo kinase inhibition assay, JAK3; type: biochemical; details: 10 µM ATP, duplicate; read-out: IC50 against JAK3
T2 sequence (P52333 1-1124): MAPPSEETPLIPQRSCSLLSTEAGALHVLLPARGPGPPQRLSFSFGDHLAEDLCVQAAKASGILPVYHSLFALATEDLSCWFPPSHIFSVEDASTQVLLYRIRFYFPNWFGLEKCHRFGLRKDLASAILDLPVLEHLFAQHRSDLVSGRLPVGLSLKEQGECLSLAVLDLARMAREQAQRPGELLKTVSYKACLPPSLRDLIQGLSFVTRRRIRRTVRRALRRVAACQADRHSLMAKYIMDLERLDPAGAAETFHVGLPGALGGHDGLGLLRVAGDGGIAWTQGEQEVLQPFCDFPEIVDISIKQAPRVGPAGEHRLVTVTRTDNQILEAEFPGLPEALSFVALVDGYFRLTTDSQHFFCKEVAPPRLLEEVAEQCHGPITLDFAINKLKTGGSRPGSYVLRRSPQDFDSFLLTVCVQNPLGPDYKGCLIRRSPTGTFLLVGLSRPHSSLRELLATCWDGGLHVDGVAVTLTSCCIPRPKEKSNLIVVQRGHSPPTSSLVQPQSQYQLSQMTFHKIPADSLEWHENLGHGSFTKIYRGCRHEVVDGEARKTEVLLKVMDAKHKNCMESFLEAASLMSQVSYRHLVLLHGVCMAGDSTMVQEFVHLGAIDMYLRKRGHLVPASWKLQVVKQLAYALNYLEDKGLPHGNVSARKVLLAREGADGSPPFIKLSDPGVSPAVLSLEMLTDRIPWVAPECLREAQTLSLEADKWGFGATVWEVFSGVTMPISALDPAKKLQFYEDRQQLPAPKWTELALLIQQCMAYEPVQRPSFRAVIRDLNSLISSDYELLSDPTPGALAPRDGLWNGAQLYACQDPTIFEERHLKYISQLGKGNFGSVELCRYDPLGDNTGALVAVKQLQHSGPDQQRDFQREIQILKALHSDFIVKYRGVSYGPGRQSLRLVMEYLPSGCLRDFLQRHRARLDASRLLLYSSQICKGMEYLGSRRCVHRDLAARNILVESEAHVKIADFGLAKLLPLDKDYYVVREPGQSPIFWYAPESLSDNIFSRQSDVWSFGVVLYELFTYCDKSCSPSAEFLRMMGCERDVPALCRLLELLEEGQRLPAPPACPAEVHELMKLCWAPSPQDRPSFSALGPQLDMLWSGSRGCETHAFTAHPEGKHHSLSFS
Method: as §1

[1] = system: Bacillus cereus ATCC 6464; test: Micro-broth dilution MBC/MIC, B. cereus; type: cell-based; details: for MBC/MIC (µM) B. cereus ATCC 6464: CLSI micro-broth dilution, 250 to 0.12 µM
Method: (§2) MBC/MIC values of compounds 1 to 8 were determined using micro-broth dilution methods on E. coli ATCC25922, S. enterica CIP8297, P. aeruginosa ATCC27853, S. aureus ATCC25923, E. faecalis CIPA186, B. cereus ATCC6464, L. monocytogenes SOR100, and C. albicans ATCC2092. Experiments were performed as described in CLSI standard M07-A9: methods for dilution antimicrobial susceptibility tests for bacteria that grow aerobically. Briefly, wells of a 96-well microplate containing 1.0 × 10^6 CFU/mL of each bacterial target were supplemented with a 2-fold serial dilution of each pure compound ranging from 250 μM to 0.12 μM. […] Each analysis was processed in triplicate.

[2] = system: Listeria monocytogenes SOR 100; test: Micro-broth dilution MBC/MIC, L. monocytogenes; type: cell-based; details: for MIC: SOR100, bacteriostatic, micro-broth dilution
Method: as §2

ABL1 = ABL1 (Homo sapiens, UniProt P00519); test: ADP-Glo kinase inhibition assay, ABL1; type: biochemical; details: 10 µM ATP, duplicate; read-out: IC50 against ABL1
ABL1, sequence (P00519 whole entry): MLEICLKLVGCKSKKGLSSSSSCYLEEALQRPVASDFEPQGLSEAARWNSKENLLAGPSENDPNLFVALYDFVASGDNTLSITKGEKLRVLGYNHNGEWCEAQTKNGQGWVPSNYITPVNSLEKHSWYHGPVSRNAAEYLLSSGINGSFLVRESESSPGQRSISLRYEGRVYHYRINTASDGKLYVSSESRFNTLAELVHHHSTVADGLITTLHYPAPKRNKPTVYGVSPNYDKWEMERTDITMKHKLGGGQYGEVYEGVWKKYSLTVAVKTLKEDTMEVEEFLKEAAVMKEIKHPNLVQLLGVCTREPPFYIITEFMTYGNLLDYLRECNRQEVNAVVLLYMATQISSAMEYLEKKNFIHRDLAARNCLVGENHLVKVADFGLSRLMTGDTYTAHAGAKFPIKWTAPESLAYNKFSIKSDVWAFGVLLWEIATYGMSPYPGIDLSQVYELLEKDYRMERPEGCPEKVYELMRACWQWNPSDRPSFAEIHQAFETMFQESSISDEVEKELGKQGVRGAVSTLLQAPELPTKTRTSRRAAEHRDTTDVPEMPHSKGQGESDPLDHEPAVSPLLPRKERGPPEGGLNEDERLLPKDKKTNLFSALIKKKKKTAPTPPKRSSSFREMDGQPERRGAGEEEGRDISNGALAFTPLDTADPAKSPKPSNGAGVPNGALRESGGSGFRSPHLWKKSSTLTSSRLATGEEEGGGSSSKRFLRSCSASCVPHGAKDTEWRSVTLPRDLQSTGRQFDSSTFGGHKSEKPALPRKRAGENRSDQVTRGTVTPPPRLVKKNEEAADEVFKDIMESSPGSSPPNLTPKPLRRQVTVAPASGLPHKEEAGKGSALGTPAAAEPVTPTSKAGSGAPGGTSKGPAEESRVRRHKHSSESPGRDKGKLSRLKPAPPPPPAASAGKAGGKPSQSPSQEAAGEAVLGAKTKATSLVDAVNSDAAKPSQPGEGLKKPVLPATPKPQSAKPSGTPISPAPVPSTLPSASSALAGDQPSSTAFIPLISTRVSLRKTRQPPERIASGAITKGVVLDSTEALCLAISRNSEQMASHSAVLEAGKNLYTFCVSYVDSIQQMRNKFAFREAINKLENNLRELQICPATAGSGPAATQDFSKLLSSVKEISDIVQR
Method: as §1

[3] = system: Enterococcus faecalis CIP A 186; test: Micro-broth dilution MBC/MIC, E. faecalis; type: cell-based; details: for MBC/MIC (µM) E. faecalis CIP A 186: CLSI micro-broth dilution, 250 to 0.12 µM; for MIC: Enterococcus faecalis
Method: as §2

[4] = system: Staphylococcus aureus ATCC25923; test: Micro-broth dilution MBC/MIC, S. aureus; type: cell-based; details: up to 250 µM
Method: as §2

SMILES | EC50 (U-2 OS cells) [µM] | EC50 (HCT-116 cells) [µM] | MIC [2] [µM] | EC50 (hTERT RPE-1 cells) [µM] | other results
CC1(C)CC(=O)c2c(ccc(C(=O)/C=C/CO)c2N)O1 [Compound 5, 2,2-dimethyl-5-amino-6-(2′E-ene-4′-hydroxylbutyryl)-4-chromone] | 7.35 | 8.04 | – | 5.22 | IC50 (human EphB1; 10 µM ATP, duplicate, read-out: IC50 against EphB1): 1.42 µM; IC50 (human EphB1; printed in the curve of Figure 4C, read-out: Hs_EphB1 IC50): 1.42 µM; IC50 (JAK3): 25.2 µM
CC[C@H]1OC(=O)[C@H](C)[C@@H](O[C@H]2C[C@@](C)(OC)[C@@H](O)[C@H](C)O2)[C@H](C)[C@@H](O[C@@H]2O[C@H](C)C[C@H](N(C)C)[C@H]2O)[C@](C)(O)C[C@@H](C)C(=O)[C@H](C)[C@@H](O)[C@]1(C)O [Erythromycin, reference compound] | – | – | 1.36 (≈ 0.998 µg/mL) | – | MIC ([1]; Bacillus cereus, ATCC6464, micro-broth dilution): 5.45 µM (≈ 4 µg/mL); MIC ([3]; CIPA186, bacteriostatic, micro-broth dilution, read-out: MIC Enterococcus faecalis): 5.44 µM (≈ 3.99 µg/mL)
C[C@H](O)c1nc(=O)c2ccccc2[nH]1 [Compound 7, (−)-chrysogine] | > 25 | > 25 | – | > 25 | –
CC1(C)CC(=O)c2c(ccc(C(=O)C[C@@H](N)CO)c2N)O1 [Compound 6, fusarochromanone] | 0.232 | 0.17 | – | 0.058 | –
CC(=O)N[C@@H](CO)CC(=O)c1ccc2c(c1N)C(=O)CC(C)(C)O2 [Compound 3, fusarochromanone TDP-2] | 35.1 | 63 | – | 23.1 | –
C/C=C/[C@@H]1C=C[C@@H]2C[C@H](C)CC[C@H]2[C@]1(C)/C(O)=C1\C(=O)[C@H](CO)N(C)C1=O [Compound 8, equisetin] | > 25 | > 25 | – | > 25 | MBC ([1]; Bacillus cereus, ATCC6464, read-out: MBC Bacillus cereus): 7.8 µM (≈ 2.91 µg/mL); MBC ([2]; SOR100, read-out: MBC Listeria monocytogenes): 31.2 µM (≈ 11.7 µg/mL); MIC ([3]; CIPA186, read-out: MIC Enterococcus faecalis): 31.2 µM (≈ 11.7 µg/mL); activity against S. aureus ATCC25923 [4]: no activity

Further lines, with some results ahead:

EC50 (U-2 OS cells) [µM] | EC50 (HCT-116 cells) [µM] | MIC [2] [µM] | SMILES | EC50 (hTERT RPE-1 cells) [µM] | other results
13.2 | 13.7 | 125 (≈ 32.4 µg/mL) | CC1(C)C=Cc2c(ccc(C(=O)/C=C/CO)c2N)O1 [Compound 2, deacetamidofusarochrom-2′,3-diene] | 10 | MBC/MIC (µM) B. cereus ATCC 6464 [1]: (−) ((−) indicates that no activity was visualized at the highest concentration (250 µM)); IC50 (ABL1): 23.8 µM; MBC/MIC (µM) E. faecalis CIP A 186 [3]: (−) ((−) indicates that no activity was visualized at the highest concentration (250 µM)); IC50 (JAK3): 25.5 µM
39.8 | 84.4 | 125 (≈ 39.8 µg/mL) | CC(=O)N[C@@H](CO)CC(=O)c1ccc2c(c1N)C=CC(C)(C)O2 [Compound 4, fusarochromene] | 16.7 | MBC/MIC (µM) B. cereus ATCC 6464 [1]: (−) ((−) indicates that no activity was visualized at the highest concentration (250 µM)); MBC/MIC (µM) E. faecalis CIP A 186 [3]: (−) ((−) indicates that no activity was visualized at the highest concentration (250 µM))
0.896 | 0.087 | – | CC1(C)C=Cc2c(ccc(C(=O)CC(N)CO)c2N)O1 (stereo not drawn) [Compound 1, deacetylfusarochromene] | 0.176 | –
